Out of some 340,000 compounds screened, about 12,000 (3.5%) were called active. The shares of active, inactive and inconclusive entries below differ from those in the screen. Calls follow the shape of the dose curve; as a rule, active = well fitted inhibition curve with a large enough effect; inconclusive = small, poorly fitted or top-dose-only effect, or another doubt; inactive = no such curve, though single readings can be large or run the other way. No potency is given beside an inconclusive call; the fits are too rough.
Test: qHTS Assay for Inhibitors of Hepatitis C Virus (HCV)
Conditions: Huh7.5.1 HCVcc-Cre (HCVcc is cell-culture hepatitis C virus) infection, luciferase reporter, 44 h; activity change, negative = inhibition: at 41.8 µM (top of the series) unless noted
How it was run: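 Reporter virus HCVcc-Cre (~0.5 moi) infects cells exposed to compound; seeding density 1,000 cells/well with 4 h settling beforehand. Luminescence, 15 sec read, taken 44 h post-infection following a 15 min RT substrate incubation.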
% is scaled to controls: 0 for no effect and ±100 for the full control effect; potency is read from the fitted curve at half-maximal effect; tags tell the direction and shape of the fitted curve.

Row | Structure (SMILES) | Potency | activity change, negative = inhibition
1 | COc1ccc2[nH]c(C)c(CCNC(=S)Nc3ccccc3C)c2c1 | inconclusive [inhibitor, partial curve] | 
2 | Cc1ccc(NC(=O)Cc2ccsc2)cc1Cl | inactive | 
3 | O=C(Nc1cccnc1)c1ccc(NS(=O)(=O)c2cc([N+](=O)[O-])ccc2Cl)cc1 | inactive | 
4 | COC(=O)c1ccc(COc2cccc(C)c2C)cc1 | inactive | 
5 | O=C(Nc1ccc(C(F)(F)F)cc1)C1CCN(c2cnccn2)CC1 | inconclusive [inhibitor, single point] | 
6 | Cc1cc(OC(C)C)nc(NCc2ccccc2)n1 | inconclusive [inhibitor, single point] | 
7 | CCc1ccc(OC)c(S(=O)(=O)Nc2ccc(Cc3ccncc3)cc2)c1 | active: 8.91 µM | 
8 | COc1ccc(CN(C)C(=O)Cc2ccc(S(=O)(=O)N3CCOCC3)s2)cc1OC | inconclusive [inhibitor, partial curve] | 
9 | O=C(NCC1CC1)c1ccc2c(c1)S(=O)(=O)c1cc(Cl)ccc1C2=O | inconclusive [inhibitor, single point] | 
10 | CCCc1cc(NCC2CCCO2)n2c(nc3ccccc32)c1C#N (centres undefined) | inconclusive [inhibitor, partial curve, poor fit] | 
11 | COc1ccc(-c2csc(Nc3ccc(C)cn3)n2)cc1OC | active: 12.6 µM | 
12 | Nc1nc(Nc2ccccc2F)nc(NCc2ccco2)c1[N+](=O)[O-] | inconclusive [inhibitor, single point] | 
13 | Cc1ccc(S(=O)(=O)N2CCOCC2)cc1C(=O)Nc1ccc(S(=O)(=O)Nc2nccs2)cc1 | inactive | 
14 | COCCNC(=O)C(=O)NNC(=O)COc1ccc(OC)cc1 | inactive | 
15 | NS(=O)(=O)c1ccc(CCNC(=O)CN2C(=O)c3ccccc3S2(=O)=O)cc1 | inactive | 
16 | Cc1ccc(N/C(N)=N/c2nc(C)cc(N3CCCCC3)n2)c(C)c1 | active: 2.82 µM | 
17 | S=C(NCCc1ccccc1)Nc1ccccc1 | inconclusive [inhibitor, partial curve, poor fit] | 
18 | O=C(NCC1CCCO1)c1cc2c([nH]c3ccccc32)c(-c2cccc(Cl)c2)n1 (centres undefined) | active: 1.26 µM | 
19 | CCC1C(=O)NCCN1Cc1nc(-c2ccc(C)s2)oc1C (centres undefined) | inconclusive [inhibitor, single point] | 
20 | COc1ccc(N2CC(C)Cn3c2nc2c3c(=O)n(Cc3ccc(C)cc3)c(=O)n2C)c(OC)c1 (centres undefined) | inconclusive [inhibitor, full curve, poor fit] | 
21 | CCOC(=O)C1=CN(Cc2cccc(F)c2)S(=O)(=O)N(CC)C1c1ccc2ccccc2c1 (centres undefined) | inactive | 
22 | CCC(=O)NC(=S)Nc1cccc(NC(=O)c2ccco2)c1 | inactive | 
23 | C=CCN1C(=O)/C(=C/c2ccc(OC(C)=O)c(OCC)c2[N+](=O)[O-])SC1=S | inconclusive [inhibitor, single point] | 
24 | COc1ccc(-c2csc(CCn3nc(C)cc3C)n2)cc1 | inconclusive [inhibitor, single point] | 
25 | CCOC(=O)CNc1nc(Cl)nc(N2CCCCC2)n1 | inactive | 

Row | Structure (SMILES) | Potency | activity change, negative = inhibition
26 | COc1ccc(S(=O)(=O)N2CCN(C(=O)C3CCC3)CC2)cc1 | inconclusive [inhibitor, single point] | 
27 | Cc1ccc(NS(=O)(=O)c2ccc3c(c2)CCC(=O)N3)cc1 | inconclusive [inhibitor, partial curve] | 
28 | CCOc1cc(C(c2c(C)[nH][nH]c2=O)c2c(C)[nH][nH]c2=O)cc(Br)c1OC | inactive | 
29 | CCCCNC(=O)COC(=O)c1c2c(nc3ccccc13)CCC2 | inconclusive [inhibitor, full curve, poor fit] | 
30 | Cc1nc(CS(=O)(=O)c2ccc(Cl)cc2)cc(Sc2ccc(Cl)cc2)n1 | inconclusive [inhibitor, single point] | 
31 | CCN(CC)C(=O)c1cccc(NC(=O)c2cc(C3CC3)nc3c2cnn3C(C)C)c1 | active: 7.08 µM | 
32 | CNNC(=S)Nc1ccc(Cl)cc1 | inactive | 
33 | COc1ccc(-c2nn(-c3ccccc3)cc2/C=C/C(=O)OCC(=O)Nc2ccc(C#N)cc2)cc1 | inconclusive [inhibitor, partial curve] | 
34 | CCOc1ccc(-c2nnc(NC(=O)C3CCCC3)o2)cc1 | inactive | 
35 | Cc1ccc2oc(-c3cccc(NC(=O)c4ccccn4)c3)nc2c1 | inactive | 
36 | S=C(NCCNC(=S)Nc1ccccc1Cl)Nc1ccccc1Cl | inconclusive [inhibitor, partial curve, poor fit] | 
37 | CC(C)C[C@H]1CNC(=S)N1CC1CCCN1C[C@H](Cc1ccc(O)cc1)N1C[C@H](Cc2ccccc2)N(CC2CCCCCC2)C1=S (some centres undefined) | active: 7.94 µM | 
38 | Nc1ccc(C(=O)Nc2cccc3ncccc23)cc1 | inactive | 
39 | Cc1cc(C)n(CC(O)COc2ccccc2[N+](=O)[O-])n1 (centres undefined) | inactive | 
40 | O=C1Nc2ccccc2Nc2ccccc21 | inactive | 
41 | Fc1ccccc1-c1nc2ccccc2[nH]1 | inactive | 
42 | COc1ccc(C2CC3(CC(C)(C)NC(=S)N3)Oc3cc(O)cc(C)c32)cc1 (centres undefined) | inconclusive [inhibitor, single point] | 
43 | CCOc1cc(C(=O)NCC2CCCO2)cc(OCC)c1OCC (centres undefined) | inconclusive [inhibitor, full curve, poor fit] | 
44 | COc1ccc(N(CC(=O)Nc2ccccc2F)S(=O)(=O)c2ccc(C)c([N+](=O)[O-])c2)cc1 | inconclusive [inhibitor, single point] | 
45 | O=[N+]([O-])c1cc(Br)c(Nc2ccccc2)c([N+](=O)[O-])c1 | inconclusive [inhibitor, single point] | 
46 | CCC(=O)Nc1ccccc1C(=O)OCC(=O)c1ccc2ccccc2c1 | inconclusive [inhibitor, single point] | 
47 | CC(C)CCN1CCN=C1Nc1ccccc1 | inactive | 
48 | CCOC(=O)/C(=C/c1ccco1)NC(=O)c1ccc(Br)o1 | inactive | 
49 | CN(C)S(=O)(=O)c1cccc(N=C2NN=C(c3ccccc3)CS2)c1 | active: 35.5 µM | 
50 | O=C(COC(=O)c1ccccc1NS(=O)(=O)c1cccs1)NCC12CC3CC(CC(C3)C1)C2 | inconclusive [inhibitor, single point] | 

Row | Structure (SMILES) | Potency | activity change, negative = inhibition
51 | COCCCN1C(=O)C(=O)/C(=C(/O)c2ccc(S(=O)(=O)N3CCOCC3)cc2)C1c1ccc(C(C)C)cc1 (centres undefined) | inactive | 
52 | CCNc1cc(Cl)nc(SC)n1 | inconclusive [inhibitor, single point] | 
53 | CCCc1nnc(NC(=O)c2oc3ccccc3c2COCC)s1 | inconclusive [inhibitor, single point] | 
54 | O=C(COc1ccccc1)NCC1CCCO1 (centres undefined) | inactive | 
55 | CCN(CCCNC(=O)CCn1c(=S)[nH]c2cc3c(cc2c1=O)OCO3)c1cccc(C)c1 | inconclusive [inhibitor, partial curve] | 
56 | COc1cc(N)c2ncccc2c1Br |  | inconclusive: -42.8% [inhibitor]
57 | COc1ccc(C(=O)NC(=S)Nc2ccccc2N2CCN(S(C)(=O)=O)CC2)cc1OC | inconclusive [inhibitor, single point] | 
58 | C=CCNC(=O)/C(C#N)=C/c1c(N(Cc2ccccc2)Cc2ccccc2)nc2ccccn2c1=O | inconclusive [inhibitor, partial curve] | 
59 | Cc1cc(C)c[n+](CC(=O)c2ccc(C)c([N+](=O)[O-])c2)c1 | inactive | 
60 | COc1ccc(OCc2nc3c4c(ncn3n2)-c2ccccc2CC42CCCC2)cc1 | inconclusive [inhibitor, partial curve] | 
61 | COc1ccc(C)cc1NC(=O)c1cccc(-c2ccc(OC(C)=O)cc2)c1 | inconclusive [inhibitor, partial curve, poor fit] | 
62 | CCCCn1c(O)c(N=Nc2ccccn2)c2ccccc21 | inconclusive [inhibitor, single point] | 
63 | COc1ccc(NC(=O)CN2CCCCC2)cc1S(=O)(=O)N1CCCCC1 | inactive | 
64 | O=C(CCNC(=O)c1ccc(Br)cc1)OCc1ccccc1Cl | inactive | 
65 | Cc1ccc(Cn2nc(-c3ccccc3)nc2-c2ccccc2)cc1 | inactive | 
66 | OC(COc1c(Cl)cc(Cl)cc1Cl)CN1CCCCC1 (centres undefined) | inconclusive [inhibitor, full curve] | 
67 | O=C(NC(=S)Nc1cc([N+](=O)[O-])ccc1O)C1CC1 | inactive | 
68 | CCOc1ccc(C(=O)Nc2ccc(S(=O)(=O)N3CCOCC3)cc2)cc1OCC | inconclusive [inhibitor, full curve] | 
69 | COC(=O)c1ccc2c(=O)n(-c3ccccc3F)c(=S)[nH]c2c1 | inconclusive [inhibitor, partial curve, poor fit] | 
70 | CCOC(=O)c1c(NC(=O)CSc2nc3ccc(OC)cc3[nH]2)sc2c1CC(C)(C)NC2(C)C | inconclusive [inhibitor, partial curve] | 
71 | CC(CCc1ccccc1)NC(=O)c1ccc(NC(=O)c2cccc(Br)c2)cc1 (centres undefined) | inconclusive [inhibitor, partial curve] | 
72 | Cc1c(C(=O)OC(C)C)[nH]c2c1C(=O)CC(C)(C)C2 | inconclusive [inhibitor, single point] | 
73 | N#CC(c1ccccn1)c1ncc(C(F)(F)F)cc1Cl (centres undefined) | inconclusive [inhibitor, full curve, poor fit] | 
74 | CCN1CCCC1CN(Cc1cc2ccc(C)c(C)c2[nH]c1=O)C(=O)Nc1ccccc1OC (centres undefined) | inconclusive [inhibitor, single point] | 

From PubChem BioAssay AID651820 (National Center for Advancing Translational Sciences (NCATS), 2012)
